According to the RNAGym collection of RNA variant scans (doi:10.7554/elife.90254):
Read counts are not given, so values of variants with three or more changes are uncertain.

B1: LINE1-mini (parent)
chain: GGCAGAGCUCAACACAGCGUGGCAAAGUGGCUGUGGCUAGACUGCC

Variants of: B1
Experiment: self-cleavage, relative activity (ratio to wild type); higher = more cleavage; in vitro, sequencing; the parent is a self-cleaving ribozyme

Variant	self-cleavage
G1U U9C A39C C42U	0.01
G1U G5U A25U U28C	0.13
G2A C15U A24U G30A U38G	0.02
G2A A6U U43C	0.23
G2A C8G G30U G36U	0.29
G2A A6U C10G U28C G44A	0.09
G2A C13U C18A G21A C42A	0.06
G1U G22C C23A U43C C45A	0.04
G2A A12U C13U C31U U34A A41G	0.11
G1U U28A C45U	1.13
G2A C10A A14G U20C U34A C45G	0.05
G2A C8A A25G U34G C37A	0.37
G1U U9A G21C	0.02
G2A C15A U32C	0.09
G2A C13U U28G G30U A41G	0.09
G1U G17A G22C C37A	0.14
G2A A24C U32G	0.19
G2A A11G G33C	0.02
G2A C23A C31A G35U A41C	0.11
G1U G22U G33A U34A U43G	0
G2A A6G C15G G33U G36C	0.01

Variant	self-cleavage
G2A C13A C18U C23G G36A C42U	0.17
G2A G5A A11G	0.11
G2A G5A A25G U28G C31U	0.16
G2A C8A C18A G21A	0.73
G2A G5C C15U A26G G40U	0.09
G1U G2A A4C G29C G33A A41G	0.07
G1U G2C G22A G36U	0.03
G2A G5C A6C A11C G36A G44C	0.01
G1U G22A G33C	0.04
G1U G2A U20C C31G C45A	0.12
G1U G5U G33C	0.06
G2A C13A A14U	0.57
G1U G5U C8A C23U G27C U34G G44C	0.06
G1U U9G C45G C46U	0.01
G1U G19U G27C	0.3
G1U G27U G29A	0.19
G2A C8G A25U	0.03
G2A G5U A11C C13A C42U C46G	0.02
G2A C18U G33U	0.1
G2A A14G G27A	0.61
G1U G19U U34C A39C	0

Variant	self-cleavage
G2A C15G G29U G33C G40A	0.01
G1U G17U C46G	0.05
G1U C31U C46A	0.21
G1U C18U C31A C37G	0.01
G2A A6U U9A C18U	0.03
G1U G19A C31G U34A	0.02
G1U G5A C15G C18G U32C C37A	0.03
G2A A11U A16G	0.04
G1U G2A G17U	0.05
G1U G27A A41U	0.87
G2A C13G G30A G33U U34C G35U	0.19
G2A C3U C10G A16C G33U	0.03
G1U U28C G40C	0.02
G2A C3A G7U G19U G21C G27U U34A	0.39
G2A A4G C23G A24C A26U G27A	0.01
G2A C8G G30U C31G C45A	0.03
G1U C31U C37A G44U	0.04
G2A A12C G33U	0.02
G1U G5U A12C G44A	0.02
G2A A4C C8A A26U C46A	0.68
G1U U9A C10A C15G G22C G44U	0

Variant	self-cleavage
G2A C3A U34G	0.26
G1U U43C C46U	0.07
G2A C3U C8A C10G U20A G40A	0.02
G1U C37U C45U C46A	0
G2A C10U G30U U38A	0.14
G1U G5C A12G C18A C46U	0.02
G1U G5U G19U G30U G40C C45A	0.01
G2A C18U U43A	0.13
G1U G5U U9A G17U G30C C37U	0.02
G1U G5U A39U	0.04
G2A C8G C18U C23G A24G G36A A41U	0.01
G1U G7C A11C	0.03
G2A A4C A25U U43C	0.44
G2A C8G U9A G44U	0.06
G1U U9A A11U U20G G27A	0.01
G1U G17A C18G G44U C45U	0.03
G2A A26C C42U	0.21
G2A C3A C18U	1.92
G2A C13U G21U	1.46
G2A C3G C23U G33A A41G	0.32
